Measured values from PMC9163754.
Substitutions are numbered along the chain they refer to. No constants are given. Whether binding was seen depends on the method and setting. In cells and extracts the contact can be indirect. Some entries that bind do so weakly or less than the wild type. For some of these results: Where a sequence is shown, tags or fusion partners need not be part of it. Each block holds one binder with its values, some of them ahead of it.

Protein sequences, listed by entry. Tags and fused reporters are not part of them.
UniProt Q64261: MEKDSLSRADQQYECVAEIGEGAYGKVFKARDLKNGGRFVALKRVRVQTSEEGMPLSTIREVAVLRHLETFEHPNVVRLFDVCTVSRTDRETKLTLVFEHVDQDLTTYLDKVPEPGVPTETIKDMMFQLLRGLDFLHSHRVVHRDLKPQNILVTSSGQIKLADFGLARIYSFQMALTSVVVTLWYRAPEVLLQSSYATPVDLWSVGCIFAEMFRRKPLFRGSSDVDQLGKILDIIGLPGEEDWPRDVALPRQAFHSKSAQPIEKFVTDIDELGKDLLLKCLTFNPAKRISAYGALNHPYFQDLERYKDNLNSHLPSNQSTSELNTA

How the values were obtained:
[1] = molecular target: CDC homolog 1 (CDH1) (mouse (endogenous in B16F10)) (UniProt Q9R1K5); test: co-IP; B16F10 cells transduced with increasing MOI of Myc-FERM-WT or Myc-FERM-NLM adenovirus; CDH1-IP by the text (Myc-IP by the legend); immunoblot for CDH1, CDK4, CDK6 and Myc
[2] = molecular target: T1, cyclin-dependent kinase 4 (CDK4) (mouse (endogenous in B16F10)) (UniProt P30285); test: as above
T1 sequence: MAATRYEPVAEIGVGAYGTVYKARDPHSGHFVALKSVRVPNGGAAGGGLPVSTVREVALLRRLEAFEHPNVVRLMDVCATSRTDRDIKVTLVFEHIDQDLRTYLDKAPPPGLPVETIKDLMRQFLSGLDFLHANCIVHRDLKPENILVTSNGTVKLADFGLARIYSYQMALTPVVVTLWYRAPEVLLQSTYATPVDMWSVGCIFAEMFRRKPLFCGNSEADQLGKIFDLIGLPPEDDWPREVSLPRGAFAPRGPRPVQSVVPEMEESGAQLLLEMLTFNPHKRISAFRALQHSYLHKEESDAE

[3] = molecular target: cyclin-dependent kinase 6 (CDK6) (mouse (endogenous in B16F10)) (UniProt Q64261); test: as above
[4] = molecular target: T2, GFP-FERM-R312A/K313A (UniProt P34152); test: co-IP; GFP-IP from B16F10 cells transfected for 24 h with GFP-FERM-WT, GFP-FERM-NLM or GFP-FERM-R312A/K313A; immunoblot for endogenous CDH1, CDK4 and CDK6
T2 sequence: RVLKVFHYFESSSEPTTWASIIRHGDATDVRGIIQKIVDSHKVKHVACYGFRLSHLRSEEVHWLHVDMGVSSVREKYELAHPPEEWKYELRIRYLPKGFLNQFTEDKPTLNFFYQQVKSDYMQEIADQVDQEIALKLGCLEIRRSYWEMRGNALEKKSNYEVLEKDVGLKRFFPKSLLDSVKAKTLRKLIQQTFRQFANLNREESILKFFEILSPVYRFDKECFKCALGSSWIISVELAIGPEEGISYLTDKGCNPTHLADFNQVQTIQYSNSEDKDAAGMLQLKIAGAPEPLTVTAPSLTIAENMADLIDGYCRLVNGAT

[5] = molecular target: T3, GFP-FERM-WT (UniProt P34152); test: as above
T3 sequence: T2 sequence with A278R, A279K

[6] = molecular target: Focal adhesion kinase (FAK) (mouse (endogenous in B16F10)) (UniProt P34152); test: condition: only vehicle-treated cells, without FAK inhibitor; co-IP; FAK-IP from lysates of vehicle-treated B16F10 cells (no FAK inhibitor), endogenous proteins; immunoblot
[7] = molecular target: Focal adhesion kinase (FAK) (mouse (endogenous in B16F10)) (UniProt P34152); test: co-IP; FAK-IP from B16F10 lysates, endogenous proteins; cells treated with FAK-I (PF-271, 2.5 uM) with or without MG-132 (10 uM) for 6 h; 1% Triton X-100, 50 mM Hepes, 150 mM NaCl buffer, overnight at 4 °C; immunoblot

binding [1]: binds | binding [2]: binds | binding [3]: binds
B1: Myc-FERM-WT (domain or fragment, UniProt P34152 35-355)
chain: T2 sequence with A278R, A279K

binding [4]: binds | binding [5]: binds | binding [6]: no binding | binding [7]: binds
B2: cyclin-dependent kinase 4 (CDK4) (protein, UniProt P30285 1-303)
chain: T1 sequence
